Measurements published in publication PMC4336329 (PLoS ONE, 2015).
Among all 310,000 compounds or so, about 14,000 (4.5%) showed an effect of 50% or more. The effect is printed as a negative number. Some of the results follow.

Molecular target: human ether-à-go-go-related gene (hERG) potassium channel (human, UniProt Q12809)
Assay: primary screen, population patch clamp on CHO cells stably expressing hERG
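Note: peak tail current of the secondary pulse compared with the same well before compound.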

human ether-à-go-go-related gene (hERG) potassium channel, sequence (Q12809 whole entry, looked up): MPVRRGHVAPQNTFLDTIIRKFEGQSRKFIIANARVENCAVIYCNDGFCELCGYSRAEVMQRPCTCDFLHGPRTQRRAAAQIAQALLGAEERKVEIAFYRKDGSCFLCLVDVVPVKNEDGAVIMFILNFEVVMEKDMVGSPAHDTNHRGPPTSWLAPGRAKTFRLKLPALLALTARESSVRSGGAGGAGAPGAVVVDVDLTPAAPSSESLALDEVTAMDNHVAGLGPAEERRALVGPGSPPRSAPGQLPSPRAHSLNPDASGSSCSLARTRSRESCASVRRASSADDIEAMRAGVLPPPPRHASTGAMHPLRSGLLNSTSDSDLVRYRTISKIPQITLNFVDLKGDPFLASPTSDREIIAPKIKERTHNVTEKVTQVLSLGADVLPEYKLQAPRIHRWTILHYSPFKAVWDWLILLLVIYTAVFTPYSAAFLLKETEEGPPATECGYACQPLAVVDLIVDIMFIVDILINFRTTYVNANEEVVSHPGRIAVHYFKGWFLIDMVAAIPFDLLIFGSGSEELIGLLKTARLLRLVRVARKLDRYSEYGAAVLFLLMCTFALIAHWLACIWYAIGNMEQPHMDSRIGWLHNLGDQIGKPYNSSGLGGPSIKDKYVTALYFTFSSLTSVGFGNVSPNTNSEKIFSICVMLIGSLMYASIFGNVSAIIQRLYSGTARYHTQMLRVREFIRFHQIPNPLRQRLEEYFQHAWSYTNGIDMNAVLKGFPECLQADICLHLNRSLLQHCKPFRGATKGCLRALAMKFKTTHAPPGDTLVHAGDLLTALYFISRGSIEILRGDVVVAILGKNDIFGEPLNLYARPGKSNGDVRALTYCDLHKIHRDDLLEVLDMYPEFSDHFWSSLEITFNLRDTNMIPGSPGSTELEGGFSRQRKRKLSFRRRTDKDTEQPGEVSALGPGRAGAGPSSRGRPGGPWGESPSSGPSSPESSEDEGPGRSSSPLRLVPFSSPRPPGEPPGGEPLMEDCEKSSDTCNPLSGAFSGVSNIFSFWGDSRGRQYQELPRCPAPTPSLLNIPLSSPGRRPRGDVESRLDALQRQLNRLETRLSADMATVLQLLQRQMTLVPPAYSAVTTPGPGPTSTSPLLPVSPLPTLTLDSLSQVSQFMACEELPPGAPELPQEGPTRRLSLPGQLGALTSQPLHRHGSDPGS

Row | Compound | hERG current change (%, negative = inhibition) at 10uM
1 | O=c1[nH]c(=O)n(Cc2ccccc2)c(O)c1C=Nc1ccc(CN2CCOCC2)cc1 | 4.33%
2 | Fc1ccc(COc2ccc3ccccc3c2CNc2nn[nH]n2)cc1 | 2.22%
3 | O=C(CC1SC(=NCC2CCCO2)NC1=O)Nc1cccc2ccccc12 (centres unmarked) | -26.6%
4 | CCOC(=O)NC(NC(=O)OCC)C(=O)c1ccccc1 | -0.854%
5 | O=C(NCCCn1ccnc1)c1nc(Cn2ccc([N+](=O)[O-])n2)no1 | 9.49%
6 | Cc1ccc(-c2nc(NCCN(C)C)c3ccccc3n2)cc1 | -44.9%
7 | COc1cc(C(=O)NCCC(C)C)ccc1OCc1ccc(Cl)cc1Cl | -0.57%
8 | CCCCCCn1c(N2CCC(C)CC2)nc2c1c(=O)[nH]c(=O)n2C | -14.9%
9 | Cc1ccc(N/C=C/C(=O)C(C)(C)C)c(O)c1 | -5.33%
10 | COc1ccccc1CNC(=O)COc1cccc(-n2cnnn2)c1 | -13.8%
11 | CC(NC(=O)COc1ccc(-c2nnco2)cc1)c1ccc(Cl)cc1Cl (centres unmarked) | -19.2%
12 | CCOc1ccc(S(=O)(=O)c2c[nH]c3ccc(C)cc3c2=O)cc1 | 24.9%
13 | CCOC(=O)CCSc1nc(N2CCOCC2)c2c(c1C#N)CC(C)(C)OC2 | -11.1%
14 | CC(C)(C)n1nnnc1C(c1ccc(C(F)(F)F)cc1)N(Cc1ccc(F)cc1)Cc1ccco1 (centres unmarked) | 8.86%
15 | COc1ccccc1NC(=S)NCCc1ccc(Cl)cc1 | -24.4%
16 | COc1ccc(CNC(=O)C2CCN(S(=O)(=O)N3CCC4(CC3)OCCO4)CC2)c(OC)c1 | 4.25%
17 | O=C(c1ccccc1)c1ccc(OC(=O)C2CCCCC2)cc1 | 15.9%
18 | CC(Cc1nnc(SCC(=O)O)n1N)c1ccccc1 (centres unmarked) | 23.3%
19 | O=C(Cc1cccs1)N1CCN(c2ccc([N+](=O)[O-])cc2)CC1 | -66.1%
20 | CC1(C)CN=C(NCc2ccccc2)S1 | 6.77%
21 | COc1cc(OC)cc(C(=O)NC2CCN(CCCOc3ccccc3)CC2)c1 | -70.2%
22 | CC1=C(C(=O)Nc2ccccc2)C(c2ccncc2)C(C#N)=C(SCC(=O)Nc2ccccc2)N1 (centres unmarked) | -25.1%
23 | CN(C)C(=O)Oc1ccnc2cc(Cl)ccc12 | -8.25%

Row | Compound | hERG current change (%, negative = inhibition) at 10uM
24 | CC(C)(C)C(=O)NC(=S)Nc1ccc(F)cc1 | 5.57%
25 | CC(C)NC(=O)COC(=O)c1ccc(Oc2ccccc2)cc1 | 1.11%
26 | Cc1cc(OCC(=O)Nc2nccs2)c2c(C)cc(=O)oc2c1 | 19.7%
27 | CCn1cc(C(=O)N2CCN(c3ccc(OC)cc3)CC2)c2cc(OC)c(OC)cc2c1=O | -33.8%
28 | COc1ccc(NC2CCCN(C(=O)c3cccnc3SC)C2)cc1OC (centres unmarked) | 19.6%
29 | CCOCCCNC(=O)CCC(=O)NNc1nc2ccccc2c2nc(-c3ccccc3)nn12 | -47.5%
30 | Cc1cc(NC(=O)C2CCN(S(=O)(=O)c3cnc[nH]3)CC2)ccc1Br | 13.6%
31 | CC(=O)c1ccc(N2CCN(C(=O)CCS(=O)(=O)c3ccc4c(c3)CCN4C(C)=O)CC2)cc1 | 3.77%
32 | Cc1ccc2nc(/C(C#N)=C\c3ccc([N+](=O)[O-])o3)[nH]c2c1 | 7.57%
33 | Cc1ccc(NC(=O)CCNC(=O)c2ccccc2Cl)cc1S(=O)(=O)N1CCOCC1 | -8.82%
34 | Cc1ccc(C(=O)NCC(=O)OCC(=O)N2CC(C)OC(C)C2)cc1 (centres unmarked) | -8.61%
35 | COc1ccc(N(CC(=O)N2CCCC2)S(C)(=O)=O)cc1 | 21.5%
36 | COc1ccc(NC(=O)c2oc3ccc(S(=O)(=O)N4CCC5(CC4)OCCO5)cc3c2C)cc1 | -1.39%
37 | O=C1CN(C(=O)c2cccc(S(=O)(=O)N3CCCC3)c2)c2ccccc2N1 | 12.3%
38 | CCOc1cc(N2CCOCC2)c(OCC)cc1NC(=O)[C@H](C)NC(=O)c1ccco1 | 25.4%
39 | O=C(NNc1ncc(C(F)(F)F)cc1Cl)c1ccc(Cl)c(Cl)c1 | 0.00088%
40 | OCCCNc1nc(-c2ccccc2)c2cc(Br)ccc2n1 | -13.4%
41 | Cc1c(NS(C)(=O)=O)cccc1-c1nc2cccnc2s1 | -5.35%
42 | COc1cc(/C=N/NC(N)=O)ccc1OC(=O)c1ccco1 | 1.11%
43 | Cc1cc(C)n(Cc2ccc(F)cc2)c(=O)c1C#N | 3.34%
44 | CN1C(=O)N(C)C2(c3ccccc3)Nn3c(s/c(=C/c4ccco4)c3=O)=NC12c1ccccc1 (centres unmarked) | -2.36%
45 | O=C(NNC1=C(C(=O)C(F)(F)F)CCC1)c1cccc(O)c1 | -0.052%
46 | COc1ccc(NC(=O)CC2SC(N3CCOCC3)=NC2=O)c(OC)c1 (centres unmarked) | -0.426%

Row | Compound | hERG current change (%, negative = inhibition) at 10uM
47 | COc1cccc(N(C(=O)c2cccs2)c2nc3ccccc3s2)c1 | 7.94%
48 | Cc1cc(-c2ccc(C(C)C)c(S(=O)(=O)Nc3cc(C)on3)c2)on1 | 8.31%
49 | COc1cccc(OC)c1OCCCOc1cccc2cccnc12 | 0.258%
50 | O=C(COc1ccccc1-c1ccccc1)N/N=C/c1ccc2ccccc2c1 | 8.07%
51 | COC(=O)c1ccc2c(c1)S(=O)(=O)NC(=NCCCN1CCOCC1)S2.Cl | -1%
52 | CC(=O)Nc1ccc(NC(=O)CSc2nc(N)c(NC(=O)c3ccco3)c(=O)[nH]2)cc1 | 16.5%
53 | O=C(NCCc1ccccc1)C(c1ccccc1)N(C(=O)c1csnn1)C1CC1 (centres unmarked) | 0.52%
54 | CC(C)(C)c1ccc(-c2nnc(SCC(=O)O)n2N)cc1 | 1.9%
55 | O=C(COc1cccc2cccnc12)N/N=C1\SCC(=O)N1Cc1ccccc1 | -44.8%
56 | O=C(c1cc([N+](=O)[O-])ccc1N1CCOCC1)N1CCN(c2ccc([N+](=O)[O-])cc2)CC1 | -79.8%
57 | CC(C)(C)CC(=O)Nc1ccc(-c2nnc3n2CCCCC3)cc1 | 10.8%
58 | C=CCn1c(O)c(C(CC)=Nc2ccc3c(c2)CCC3)c(=O)[nH]c1=O | 1.65%
59 | Cc1cc(C)cc(-n2c(SC(C)C(=O)NCc3ccc4c(c3)OCO4)nc3ccccc3c2=O)c1 (centres unmarked) | 11.3%
60 | O=C(Nc1cc(Cl)ccn1)C1CCN(S(=O)(=O)c2cccs2)CC1 | -2.64%
61 | Cc1nn(C(C)C(=O)N2CCOCC2)c(=O)c2nn(-c3ccccc3)c(C)c12 (centres unmarked) | 5.93%
62 | CC(Oc1ccc(Cl)cc1Cl)C(=O)Nc1ccc(S(=O)(=O)Nc2cnc3ccccc3n2)cc1 (centres unmarked) | -17.7%
63 | Cc1cccc(NC(=O)Nc2ccc([N+](=O)[O-])cc2)n1 | 12.2%
64 | Cc1cccc(NC(=S)c2nc3ccccc3s2)c1 | 10.8%
65 | O=C(NCc1ccco1)c1nc2ccccc2s1 | 0.532%
66 | CCOc1ccccc1Oc1c(C)oc2c(CN3CCN(CCO)CC3)c(O)ccc2c1=O | 17.1%
67 | COc1ccc(/C=N/NC(=O)CN2CCSCC2)c(OC)c1 | 8.66%
68 | COC(=O)CCC(=O)Nc1nnc(C(F)(F)F)s1 | 5.15%
69 | Cc1cc(C(=O)COC(=O)c2ccc3c(c2)OCO3)c(C)n1Cc1cccs1 | 19.8%

Row | Compound | hERG current change (%, negative = inhibition) at 10uM
70 | CN1C(=O)C2(c3ccccc31)c1c(oc3ccccc3c1=O)C(=O)N2CCO (centres unmarked) | 5.17%
71 | COc1ccc(C(=O)C2CCCN(C(=O)Cn3ccc(C)n3)C2)cc1OC (centres unmarked) | 19.1%
72 | COCC(C)NS(=O)(=O)c1ccccc1 (centres unmarked) | 12.7%
73 | O=C(CN1CCN(c2ccc(Cl)cc2)CC1)Nc1ccc(F)c(F)c1 | -18.7%
74 | CCCN=C(N)/C(C(=O)OCC)=C(\O)c1ccc(OC)cc1 | -5.54%
75 | S=C(NCc1ccncc1)Nc1ccc(Br)cc1 | -5.05%
76 | Cc1ccccc1CN(C)CCc1ccccn1.O=C(O)C(=O)O | -7.25%
77 | COc1cc(S(=O)(=O)NC2CCCC2)c(OC)cc1C | 1.17%
78 | Cn1c(SCC(=O)c2ccccc2)nnc1-c1ccncc1 | -0.277%
79 | CCOc1ccc(CCNC(=O)Cn2cccc2C(=O)c2ccccc2)cc1OCC | -2.85%
80 | CC1CCCCC1NC(=O)COC(=O)c1ccccc1NC(=O)c1ccco1 (centres unmarked) | -6.14%
81 | COCC(C)NC(=O)CCc1nnc(C2(c3ccc(Cl)cc3)CCC2)o1 (centres unmarked) | 5.14%
82 | Cc1csc(NC(=O)CN2CCCCCC2)n1.O=C(O)C(=O)O | 14.3%
83 | COC(=O)c1cc(OC)c(OC)c(OC)c1N | 18.3%
84 | O=S(=O)(Nc1cccc2ccccc12)N1CCCC1 | -8.59%
85 | Cc1ccc2c(c1)-c1c(cnn1CC(=O)NC(C)CCc1ccco1)CO2 (centres unmarked) | -16%
86 | O=P(NCc1ccccc1)(Oc1ccccc1)Oc1ccccc1 | -15.6%
87 | O=C(COC(=O)C1=COCCO1)NC1CCCCCCC1 | 8.63%
88 | CN(C1CCS(=O)(=O)C1)S(=O)(=O)c1ccccc1[N+](=O)[O-] (centres unmarked) | 14.1%
89 | Cc1ccccc1OCC(=O)NCC(c1cccs1)N1CCOCC1 (centres unmarked) | -17.3%
